Measurements taken from publication PMC4336329 (PLoS ONE, 2015).
Hit rate of the full screen: of about 310,000 compounds, about 14,000 (4.5%) showed an effect of 50% or more. The effect is printed as a negative number. This is one part of the list.

What follows are molecules tested against human ether-à-go-go-related gene (hERG) potassium channel (human, UniProt Q12809) (assay: primary screen, population patch clamp on CHO cells stably expressing hERG).
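Further: peak tail current of the secondary pulse compared with the same well before compound.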

Sequence of human ether-à-go-go-related gene (hERG) potassium channel (Q12809 whole entry, looked up): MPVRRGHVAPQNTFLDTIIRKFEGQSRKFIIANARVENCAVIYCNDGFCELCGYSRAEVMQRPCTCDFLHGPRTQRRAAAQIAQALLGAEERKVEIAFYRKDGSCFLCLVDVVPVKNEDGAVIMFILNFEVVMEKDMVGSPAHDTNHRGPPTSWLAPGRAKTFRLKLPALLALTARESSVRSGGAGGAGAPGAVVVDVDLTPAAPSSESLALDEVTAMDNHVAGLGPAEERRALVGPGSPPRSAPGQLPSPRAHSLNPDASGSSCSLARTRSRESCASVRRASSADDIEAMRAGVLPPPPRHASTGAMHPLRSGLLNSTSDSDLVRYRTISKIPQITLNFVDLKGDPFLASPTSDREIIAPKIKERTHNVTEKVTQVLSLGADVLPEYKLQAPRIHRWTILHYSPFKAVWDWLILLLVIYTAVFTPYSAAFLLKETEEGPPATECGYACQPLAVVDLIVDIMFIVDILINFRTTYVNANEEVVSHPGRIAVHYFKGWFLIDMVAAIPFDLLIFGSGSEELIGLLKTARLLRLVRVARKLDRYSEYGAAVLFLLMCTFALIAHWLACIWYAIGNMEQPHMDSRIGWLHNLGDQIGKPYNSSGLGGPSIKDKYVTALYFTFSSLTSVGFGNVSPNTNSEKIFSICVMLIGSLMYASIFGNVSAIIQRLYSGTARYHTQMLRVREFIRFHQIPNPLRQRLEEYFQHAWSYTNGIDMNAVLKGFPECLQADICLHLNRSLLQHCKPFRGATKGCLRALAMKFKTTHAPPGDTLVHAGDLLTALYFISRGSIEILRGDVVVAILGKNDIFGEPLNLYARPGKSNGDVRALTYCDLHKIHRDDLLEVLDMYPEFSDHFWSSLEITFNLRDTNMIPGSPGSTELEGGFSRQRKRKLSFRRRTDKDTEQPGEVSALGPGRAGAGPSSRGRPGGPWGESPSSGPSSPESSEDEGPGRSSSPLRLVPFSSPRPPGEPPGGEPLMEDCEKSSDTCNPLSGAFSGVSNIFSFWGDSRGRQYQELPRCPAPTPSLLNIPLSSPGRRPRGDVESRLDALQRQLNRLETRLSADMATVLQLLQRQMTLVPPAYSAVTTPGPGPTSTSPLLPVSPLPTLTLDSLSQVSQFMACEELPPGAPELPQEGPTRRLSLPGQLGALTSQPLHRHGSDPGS

Structure (SMILES) | hERG current change (%, negative = inhibition) at 10uM [%]
CC(Oc1ccc(Br)cc1Br)C(=O)Nc1cccnc1Cl (stereo not shown) | 10.4
O=[N+]([O-])c1cccc(CSC2=NCCN2S(=O)(=O)c2ccccc2)c1 | -6.78
CCCn1c2c(c(=N)c3c1CCC3)CCCC2.I | 6.05
Cc1ccc(-c2cc(C(F)(F)F)nn2-c2ccc(S(N)(=O)=O)cc2)cc1 | 2.42
O=C(Nc1ccc(O)cc1C(=O)O)c1ccc2c(c1)C(=O)N(Cc1ccco1)C2=O | -16.8
c1cncc(CNc2ncnc3sccc23)c1 | 17.8
O=C(CSc1ncnc2c1oc1ccccc12)Nc1ccccc1C(F)(F)F | 11.9
CCc1ccc2c(c1)C1(SC(NC(C)=O)=NN1C(C)=O)C(=O)N2C(C)C (stereo not shown) | 6.23
COc1ccc(Nc2cc(C(=O)NCCCN3CCOCC3)c3ccccc3n2)cc1OC | -5.34
CCn1nc(C)c(NC(=O)c2ccc(Cl)cc2)c1C | 5.72
CS(=O)(=O)Nc1cccc(S(=O)(=O)N2CCN(C(=O)c3ccccc3)CC2)c1 | -18.9
O=C(NCc1ccco1)C1c2ccccc2Oc2ccccc21 | 2.24
CCN1C(=O)C(CC(=O)Nc2ccc(C)cc2C)Nc2cc(S(=O)(=O)N(C)C)ccc21 (stereo not shown) | -36.5
O=C(CSCc1ccccc1)NCCCN1CCOCC1 | 8.67
O=C(CNC(=O)c1ccc(Br)o1)NNC(=O)c1ccccc1F | -23.7
CCOC(=O)N1CCN(CC(=O)Nc2cc3c(cc2C(C)=O)OCO3)CC1 | -1.3
Cc1cc2cc(OCC(=O)O)ccc2n1C | 6.21
COc1ccc2cc(S(=O)(=O)N3CCCCC3)ccc2c1S(=O)(=O)N1CCCCC1 | 2.92
N#CCCn1cc(C=O)c(-c2cccs2)n1 | 1.4
COC(=O)c1ccc(Cn2cc(Cl)cn2)o1 | 21.5
Cc1ccc(C)c(NS(=O)(=O)c2cc(C(=O)Nc3cccc(N(C)S(C)(=O)=O)c3)ccc2C)c1 | -21.1
C=CCNCCCOc1ccc(C)cc1Br.Cl | -9.56

Structure (SMILES) | hERG current change (%, negative = inhibition) at 10uM [%]
CCOC(=O)C1CN(S(=O)(=O)c2ccccc2)CCN1S(=O)(=O)c1ccccc1 (stereo not shown) | -17.2
O=C(COc1ccc2c(c1)CCC2)N1CCN(c2cccc(C(F)(F)F)c2)CC1 | -6.81
CC(=O)NCCc1nc2cc(NC(=O)c3ccccc3C)ccc2n1C | 7.35
C/C=C(/C(=C/C)c1ccc(O)cc1)c1ccc(O)cc1 | 5.26
CCOC(=O)c1c(-c2ccc(Cl)cc2)csc1NC(=O)CNCc1ccco1.O=C(O)C(=O)O | -28.9
O=C(c1ccc(N2CCN(C3CC(=O)N(c4ccc(F)cc4)C3=O)CC2)cc1)c1cccnc1 (stereo not shown) | -50.6
CCOC(=O)c1nsnc1NCCSC(=N)N.I | 3.69
CCCS(=O)(=O)c1nc(S(=O)(=O)c2ccc(C)cc2)c(NCCCN(C)C)s1 | -25.3
Cc1ccc2nc(CSc3nc(C)cc(C)c3C#N)[nH]c2c1 | -12.1
CCC/C=C1/CCCOC(C(=O)NCc2cc(C)n(C)n2)(C(F)(F)F)C1 (stereo not shown) | 5.48
COc1ccc(-c2c(C)oc3c(CN4CCOCC4)c(O)ccc3c2=O)cc1OC | -1.52
O=C(CCc1nc2ccccc2c(=O)[nH]1)Nc1cccc(S(=O)(=O)N2CCCCC2)c1 | 10.9
O=C(CN1C(=O)c2cccc([N+](=O)[O-])c2C1=O)N1CCN(c2ccc(F)cc2)CC1 | 7.99
Cc1cc(C)cc(N(CC(=O)NCCSCc2ccco2)S(C)(=O)=O)c1 | -11.7
O=C(CSC1=N/C(=C/c2ccco2)C(=O)N1c1ccc(OC(F)F)cc1)NC1CCS(=O)(=O)C1 (stereo not shown) | -27.5
COc1ccccc1N(CC(=O)NCCc1ccccc1)C(=O)CCC(=O)Nc1cc(C)ccn1 | -3.26
CC(=O)c1ccc(N2CCN(C(=O)C3CCN(S(=O)(=O)c4ccc(F)cc4)CC3)CC2)cc1 | -52.6
CC/C(C)=N/Nc1nc2c(c(=O)[nH]c(=O)n2C)n1Cc1ccccc1 | 5.57
CCOc1cc(CNc2ncnc3nc[nH]c23)ccc1OC | 7.07
O=C(COc1ccc(C(=O)NCc2cccnc2)cc1)Nc1cccc(C(F)(F)F)c1 | -60.6
Cc1ccccc1C(=O)c1c[nH]c(C(=O)NCc2cccs2)c1 | 17.8
O=C1CC2c3ccccc3C1C1C(=O)N(CCc3ccccc3)C(=O)C21 (stereo not shown) | -1.88

Structure (SMILES) | hERG current change (%, negative = inhibition) at 10uM [%]
CCOc1cc(NC(=O)CCl)c(OCC)cc1NC(C)=O | 20
CC(=O)c1ccc(OCc2cc(C(=O)N3CCN(c4ccccc4)CC3C)no2)cc1 (stereo not shown) | 1.99
CCC(C)N(C(=O)COC(=O)CSc1ccc([N+](=O)[O-])cc1)C1CCS(=O)(=O)C1 (stereo not shown) | -29.8
CCN1C(=O)N[C@@H](CCc2ccccc2)[C@@H](C(=O)OC)[C@H]1C | -0.742
Cc1ccccc1NC(=O)c1nnn(-c2ccc3c(c2)OCCO3)c1N | -1.68
O=C(CCS(=O)(=O)c1ccc(F)cc1)Nc1ccc(N2CCN(Cc3ccccc3)CC2)cc1 | -0.195
COc1ccc(NC2=NCCC(=O)N2Cc2cccs2)cc1.Cl | 10.3
COc1cc(/C=N/N(c2ccccc2)c2ccccc2)ccc1O | 18
CC1CCCCC1NC(=O)CN1C(=O)COc2ccccc21 (stereo not shown) | 16.9
CSC1=NCCN1C(=O)c1c(-c2c(F)cccc2Cl)noc1C | -9.91
Cc1ccc(N=Cc2cccc(O)c2O)c(C)c1 | -19.7
CCCCN(C)CCNC(=O)c1ccc2c(c1)NC(=O)C(N1CCCCC1)S2 (stereo not shown) | 2.48
O=C(CNC(=O)c1ccc(Br)cc1)OCc1cc([N+](=O)[O-])cc2c1OCOC2 | 8.26
CCOCCCN(C(=O)c1snc(C(N)=O)c1N)C(C(=O)NCCC(C)C)c1ccc(Cl)cc1 (stereo not shown) | -68.1
C=C(C)CSc1nnc([C@@H]2CCCN2C(=O)OC(C)(C)C)o1 | 12.5
CCc1noc(C)c1C(=O)N1CCN(S(=O)(=O)c2ccc(Cl)cc2)CC1 | -31.8
CCCc1nc2ccccc2c(=O)n1-c1ccc(OC)cc1 | 9.5
O=C(Cn1cc[n+](Cc2ccccc2)c1)c1ccc([N+](=O)[O-])cc1.[Br-] | -23.7
COc1cc2c(cc1OC)C(CC#N)=NC(C)(C)C2 | 1.7
C=CCn1c(CCNC(=O)c2ccco2)nc2ccccc21 | 8.65
COc1cc(CNC(=O)c2ccc(Cn3nc(C)c(Cl)c3C)o2)cc(OC)c1 | -17.3
Br.N=C1c2ccccc2CN1NC(=O)C1CC1 | -0.826

Structure (SMILES) | hERG current change (%, negative = inhibition) at 10uM [%]
CCN(CC)S(=O)(=O)c1ccc2c(c1)nc(CCC(=O)Nc1ccc3c(c1)OCO3)n2C | -2.36
CCN(CC)C1CC(=O)N(c2cccc(C)c2)C1=O (stereo not shown) | -0.878
Cn1cc(-c2ccccc2C(=O)O)c(=O)c2cc(Cl)ccc21 | 20.9
O=C(CNC(=O)c1ccc(-c2ccccc2)cc1)OCc1c(Cl)cccc1Cl | 7.89
Cc1cccc(NC(=O)c2cc(NC(=O)c3ccco3)ccc2N2CCCCC2)c1 | 7.21
CCOC(=O)C(C)n1cnc2c(nnn2-c2ccc(C)cc2)c1=O (stereo not shown) | -17.1
CCCC(=O)Nc1ccc(Sc2ccc([N+](=O)[O-])cc2)cc1 | -12.2
CCOc1ccccc1NC(=O)COC(=O)Cc1ccsc1 | -0.519
Cc1ccc(C(C)C)c(OCC#CCN2CCOCC2)c1.O=C(O)C(=O)O | -3.23
CCOC(=O)C(CC)Sc1nc2c(c(=O)[nH]c(=O)n2C)n1CCc1ccccc1 (stereo not shown) | -67.8
COc1cc(C(=O)N(Cc2cccc(Cl)c2)C2CCS(=O)(=O)C2)cc(OC)c1OC (stereo not shown) | -22.2
O=C(NCc1ccco1)/C(=C\c1cccs1)NC(=O)c1ccsc1 | -7.6
COc1ccc(C(=O)Nc2cccc(-c3cnc4ccccc4n3)c2)cc1 | 4.43
COC(=O)C1(C)NC(c2ccc(O)cc2)C2C(=O)N(c3ccccc3)C(=O)C21 (stereo not shown) | 14.4
Cc1ccc(C(=O)N2CCN(c3ccc(Cl)cc3)CC2)cc1 | -61.1
COc1ccc(/C=C/C(=O)NC(=S)Nc2cc([N+](=O)[O-])ccc2O)cc1OC | 19.7
COCCn1c(SCC(=O)Nc2ccccc2F)nnc1-c1ccoc1C | 2.8
CCO.Cc1cc(C)c2nc(NC(=O)c3cccc(S(=O)(=O)N4CCc5ccccc54)c3)sc2c1 | 7.89
CCN(CC)S(=O)(=O)c1ccc(C)c(NC(=O)COC(=O)CNC(=O)c2ccc(C(C)(C)C)cc2)c1 | 7.12
